# According to paper PMC6919601, “Identification of Plasmodium dipeptidyl aminopeptidase allosteric inhibitors by high throughput screening” (PLoS ONE, 2019):
# “And” between values parts separate entries of the source, which are not always exact repeats. Identical values can stand only once. The campaign covered roughly 110,000 compounds. About 230 (0.21%) showed an effect of 50% or more. The list shows a part of the results.
# Target: DPAP1 (Plasmodium falciparum, UniProt Q8IIJ9)
# Assay: primary screen, percent inhibition; read by cleavage of a fluorogenic dipeptide substrate; higher = more effect of the substance
# Set-up: species or system P. falciparum D10 trophozoite lysates; single well
# 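Further: 30 min substrate incubation versus DMSO and 10 µM JCP410 controls.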
# DPAP1, sequence (Q8IIJ9 whole entry, looked up): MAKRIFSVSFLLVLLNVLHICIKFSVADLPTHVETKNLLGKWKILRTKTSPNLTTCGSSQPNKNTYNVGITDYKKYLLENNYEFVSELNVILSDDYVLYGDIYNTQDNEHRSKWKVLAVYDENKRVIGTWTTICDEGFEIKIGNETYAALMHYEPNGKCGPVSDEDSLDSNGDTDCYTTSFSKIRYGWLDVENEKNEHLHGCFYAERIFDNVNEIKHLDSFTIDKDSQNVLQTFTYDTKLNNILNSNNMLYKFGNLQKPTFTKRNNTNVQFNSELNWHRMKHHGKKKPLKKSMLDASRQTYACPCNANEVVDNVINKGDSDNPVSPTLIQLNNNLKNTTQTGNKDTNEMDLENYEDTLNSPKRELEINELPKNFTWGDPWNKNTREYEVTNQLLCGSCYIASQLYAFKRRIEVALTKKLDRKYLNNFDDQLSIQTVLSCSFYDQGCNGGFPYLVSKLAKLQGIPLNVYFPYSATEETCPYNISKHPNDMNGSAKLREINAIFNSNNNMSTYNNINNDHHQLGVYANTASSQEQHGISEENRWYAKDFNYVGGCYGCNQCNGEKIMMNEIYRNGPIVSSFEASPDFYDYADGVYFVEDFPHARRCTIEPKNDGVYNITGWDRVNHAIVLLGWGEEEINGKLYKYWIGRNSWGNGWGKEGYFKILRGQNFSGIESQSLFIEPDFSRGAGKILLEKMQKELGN
row,Structure (SMILES),% Inhibition @ 10 uM
1,Cc1c(-c2ccco2)[n+]([O-])c2c([n+]1[O-])CCCC2,-3.41%
2,CCC(=O)c1c(N2CCOCC2)nc(C)c2c1CCC2,0.163%
3,NS(=O)(=O)c1ccc(CCNc2nc3ccccc3c3nc(-c4ccncc4)nn23)cc1,0.981%
4,CC1CCN(c2c(NCC3CCC(C(=O)NCc4ccc(F)cc4)CC3)c(=O)c2=O)CC1 (stereo not shown),2.84%
5,Clc1ccc(CN2CCN(c3ccccc3)CC2)cc1Cl,-0.0404%
6,Cc1nc2cc(-c3cccc(F)c3)nn2c(C)c1CCC(=O)O,2.39%
7,Cn1cc(CNC(=O)c2sc3cccc(Cl)c3c2Cl)cn1,2.08%
8,Cc1ccc(NC2OC(C)C(O)C(O)C2O)cc1C (stereo not shown),-5.62%
9,O=C(O)c1cccc(S(=O)(=O)N2CCN(Cc3ccc4c(c3)OCO4)CC2)c1,9.21%
10,CCOc1ccc(-c2nc3c(=O)n(C)c(=O)n(C)c3[nH]2)cc1OC,17.6%
11,COc1ccc2[nH]c3c(=O)n(CCC(=O)NC4CCN(Cc5ccccc5)CC4)c(=S)[nH]c3c2c1,-3.95%
12,CC(C)(C)C(=O)CSc1nc(-c2ccccc2)cs1,0.776%
13,Cc1cccn2c(=O)c3cc(C(=O)N4CCN(C(c5ccccc5)c5ccccc5)CC4)n(C)c3nc12,-1.26%
14,Cc1nn(-c2ccc(Br)cc2)c(O)c1/C=N/c1ccccc1C(=O)O,-1.44%
15,CC(C)C[C@H](NC(=O)c1cc(-c2ccccc2)cs1)C(=O)NCC#N,0.174%
16,CCc1nc2nc(C)cc(NC3CCN(Cc4ccccc4)CC3)n2n1,-0.0709%
17,CSc1nc(Oc2ccc(Cl)cc2C)cc(-n2ncc(C#N)c2N)n1,-4.12%
18,O=C(CNC(=S)N(Cc1ccccc1)Cc1ccccc1F)N1CCCC1,4.47%
19,CCN1C(=O)N/C(=C/c2cccn2-c2ccc(C(=O)O)cc2)C1=O,-3.23%
20,COc1ccc(-c2[nH]nc3c2C(c2ccco2)C(C#N)=C(N)O3)cc1 (stereo not shown),-3.16%
21,O=C(Nc1ccc2nc(-c3ccccc3)sc2c1)c1cccs1,9.34%
22,Cc1c2cnn(CC(=O)O)c(=O)c2c(C)n1Cc1ccccc1,-1.75%
23,Cc1cc(C)c2oc(-c3cccc(NC(=O)c4ccccc4Cl)c3)nc2c1,-4.4%
24,CC(C)C[C@@H](CN1CC[C@@H](NC(=O)[C@@H](CC(C)C)NC(=O)OCc2ccccc2)C1)NC(=O)OCc1ccccc1,2.22%
25,COc1cc(C(=O)n2nc(-c3cccnc3)nc2NCc2ccccc2)cc(OC)c1OC,2.01%

row,Structure (SMILES),% Inhibition @ 10 uM
1,Cc1ccc(S(=O)(=O)c2nc(S(C)(=O)=O)sc2N2CCc3ccccc3C2)cc1,1.15%
2,CCOCCCNc1nc2c(=O)n(C)c(=O)n(C)c2[nH]1,2.24%
3,CC(=O)N1CCN(c2ccc(NC(=O)COc3cc(Cl)c(Cl)cc3Cl)cc2)CC1,-4.56%
4,CC(C)(C)C1CCC(OC(=O)CCC(=O)Nc2nccs2)CC1 (stereo not shown),-0.128%
5,Cc1ccc(Cn2c(Sc3nccc(C)n3)nc3c2c(=O)[nH]c(=O)n3C)cc1,2.41%
6,COc1ccc(C)cc1NC(=O)C12CCC(C)(C(=O)C1=O)C2(C)C (stereo not shown),-4.06%
7,CCOC(=O)c1cc(C(=O)OCC)c(C)nc1C,-1.03%
8,COc1cc(C2C(C#N)=C(N)Oc3[nH]nc(-c4ccc(F)cc4)c32)ccc1OCCN1CCOCC1 (stereo not shown),2.46%
9,CCOC(=O)c1cc2c(=O)n3ccccc3nc2n(CCOC)/c1=N\C(=O)C(C)Oc1ccccc1 (stereo not shown),-11.5%
10,COc1ccc(C(=O)NC2CCCCCC2)c(OC)c1,-3.75%
11,COc1ccc(C2C3=C(OC4=C2CC(C)(C)CC4=O)C(=O)CC(C)(C)C3)cc1,-2.56%
12,Cc1nn(CC(=O)NCc2ccc(-n3cccc3)cc2)c(C)c1Br,-0.92%
13,COCCNC(=O)c1ccc(NS(=O)(=O)c2cccc(OC)c2)cc1,-1.61%
14,CCOC(=O)c1c(C)nc2ccccc2c1C(=O)O,6.39%
15,O=C(c1cccs1)N1CCN(Cc2ccccc2F)CC1,1.34%
16,CN(C)c1cc[n+](Cc2ccccn2)cc1,2.48%
17,CCC(C)NC(=O)Cn1ncc2c3ccccc3n(Cc3cc(C)ccc3C)c2c1=O (stereo not shown),-1.58%
18,NC(=O)COc1ccccc1/C=C1/SC(=O)N(Cc2ccccc2F)C1=O,-14.2%
19,Cc1ccc2c(c1)C1CN(C)CCC1N2C(=O)C(F)(F)F (stereo not shown),5.77%
20,O=C1CC(c2ccccc2)CN1C(=O)C12CC3CC(CC(C3)C1)C2 (stereo not shown),5.04%
21,Cc1ccc(S(=O)(=O)NCc2nc(-c3ccccc3)no2)cc1,-4.82%
22,Cc1c(-c2nsc(NC(=O)c3ccco3)n2)nnn1-c1cccc(Cl)c1,7.83%
23,Cc1cccc(C(=O)Nc2c(C(=O)NC(C)(C)C)oc3ccccc23)c1,-0.528%
24,Cc1cccc(NS(=O)(=O)c2ccc(Br)s2)n1,-3.78%
25,COc1cccc(/C=c2\sc3nc(-c4ccccc4OC)nn3c2=O)c1,2.24%

row,Structure (SMILES),% Inhibition @ 10 uM
1,O=C(NC(Cc1ccc(-c2ccccc2)cc1)C(=O)NC(CCc1ccccc1)C(=O)CO)OCc1ccccc1 (stereo not shown),-3.34%
2,CCOC(=O)c1cc(-c2ccc(OC)c(S(=O)(=O)N(C)Cc3ccccc3)c2)on1,-3.39%
3,O=C(O)C(Cc1ccccc1)NS(=O)(=O)c1cccc2nsnc12 (stereo not shown),-5.76%
4,COc1cccc(OC)c1C(=O)Nc1sc2c(c1C(N)=O)CCC(C(C)(C)C)C2 (stereo not shown),8.36%
5,COc1ccc(C(=O)/C=C2\C(=O)N(c3ccccc3)C(=N)N2c2ccccc2)cc1,2.82%
6,O=C(Nc1nc(-c2ccc(Br)cc2)cs1)C1CCCO1 (stereo not shown),12.6%
7,CCOC(=O)/C(=C/c1c[nH]c2ccccc12)NC(C)=O,-1.76%
8,COc1cc(CNC2CCCCC2)cc(OC)c1,-2.37%
9,Cc1nnc(NS(=O)(=O)c2ccc(Cl)cc2)s1,3.96%
10,Nc1c(-c2nc(-c3ccccc3)no2)nnn1-c1ccccc1,-1.01%
11,COc1ccccc1S(=O)(=O)Cc1ccc(C(=O)NCCN(C)C)o1,-4.53%
12,COc1ccccc1CNc1ccc(O)cc1,1.62%
13,COc1cc(OC)cc(C(=O)N2CCN(Cc3ccccc3OC)CC2)c1,-3.58%
14,Cc1nnc(SCC(=O)NC(C)c2ccccc2)nc1O (stereo not shown),8.01%
15,O=S(=O)(c1ccc(S(=O)(=O)C(F)(F)F)cc1)C(F)(F)F,-4.08%
16,O=C(CN(Cc1ccccc1)S(=O)(=O)c1ccc(Br)cc1)N1CCOCC1,1.15%
17,Cc1ccc(-c2nc3c(c(SCC(N)=O)n2)Cc2cccc(C)c2O3)cc1,-1.21%
18,CC(C)CC(=O)N1CCN(Cc2cccnc2)CC1,-9.24%
19,C/C(=N\[C@@H](CSCc1ccccc1OC(F)F)C(=O)NCC#N)NS(=O)(=O)c1ccccc1,4.54%
20,CC1CC(Nc2ccccc2)c2ccccc2N1C(=O)c1cccs1 (stereo not shown),-3.79%
21,COCCNC(=O)c1nn2c(c1Cl)NC(c1ccccc1)CC2C(F)(F)F (stereo not shown),-4.68%
22,CC(C)(C)SCCNC(=O)CN1C(=O)c2ccccc2S1(=O)=O,1.59%
23,O=C1NC(=S)N(c2ccc(Cl)cc2)C(=O)/C1=C/c1ccc(F)cc1,4.98%
24,C=CCn1c(SCC(=O)N2CCOCC2)nc2scc(-c3ccccc3Cl)c2c1=O,-1.06%
25,Cc1ccc(C(=O)C2=C(O)C(=O)N(c3ncccn3)C2c2cccc(Cl)c2)o1 (stereo not shown),-19.3%

row,Structure (SMILES),% Inhibition @ 10 uM
1,Clc1nc(Nc2ccccc2)nc(Nc2ccccc2)n1,1.8%
2,Cc1cccc(CN2C[C@@H]3C[C@H](C2)c2cccc(=O)n2C3)c1,-6.22%
3,Cc1cc(C)nc(N2CCN(C(=O)CSc3nc4ccccc4nc3N3CCCCC3)CC2)n1,0.032%
4,CC(NC(=O)c1csc2ccccc12)C1CC2CCC1C2 (stereo not shown),3.65%
5,CCO/C(O)=C1\C(C)=Nc2nnnn2C1c1ccc(Br)cc1 (stereo not shown),-5.19%
6,CCc1nc2c(c(N)c1C)CCN2C,1.88%
7,COc1cc(OC)c(-c2cc(C(=O)O)ccc2OC)c(OC)c1,-6.49%
8,CC1=CC(C)(C)N(S(=O)(=O)c2ccc(C)cc2)c2ccc(C)cc21,3.01%
9,Cc1ccc(-c2cc(C(F)(F)F)n3nc(C(=O)N4CCN5CCCC5C4)cc3n2)cc1 (stereo not shown),-1.96%
10,Cc1nnn(C23CC4CC(CC(C(=O)N5CCN(C6CCCCC6)CC5)(C4)C2)C3)n1,6.37%
11,CCCOc1ccc(S(=O)(=O)Nc2ccccn2)c2ccccc12,-3.33%
12,CC1CC(C)CN(C(=O)Cn2cc(C=O)c3ccccc32)C1 (stereo not shown),0.51%
13,Cc1nc2nc(CCc3ccccc3)nn2c(O)c1Cc1ccccc1,1%
14,O=C(Nc1c(F)c(F)nc(N2CCCCC2)c1F)c1ccccc1C(=O)N1CCCCC1,-2.73%
15,O=C1NC2(CCCCC2)Cc2ccccc21,-2.35%
16,O=C(NCc1ccco1)c1nc(-c2cccc(F)c2)n2c1CCCCC2,-6.87%
17,COc1ccc(S(=O)(=O)NCc2ccc(C(=O)N3CCN(C)CC3)cc2)cc1,-1.54%
18,Cc1cc(Cl)ccc1OCC(=O)NCc1cccs1,-3.24%
19,N=c1c(S(=O)(=O)c2ccc(Cl)cc2)cc2c(=O)n3ccccc3nc2n1Cc1ccccc1,1.08%
20,N#Cc1c(-c2ccccc2)cc(-c2cc(Br)ccc2O)nc1O,-1.07%
21,CC(C)(C)/C(O)=C/c1nc2ccc(C(=O)O)cc2nc1/C=C(\O)C(C)(C)C,-1.07% and 0.815%
22,Cc1ccnc(NC(=O)C2CCN(S(=O)(=O)c3c(C)noc3/C=C/c3cccs3)CC2)c1,-4.96%
